# Test results reported in the supplement of paper PMC12217912.
# Some of the results follow. The full chains were built here from the parent and the listed change. Values near 0.05 are background.
# B1: TEV protease; numbered along this chain (parent)
# chain: MGESLFKGPRDYNPISSSICHLTNESDGHTTSLYGIGFGPFIITNKHLFRRNNGTLVVQSLHGVFKVKDTTTLQQHLVDGRDMIIIRMPKDFPPFPQKLKFREPQREERICLVTTNFQTKSMSSMVSDTSCTFPSGDGIFWKHWIQTKDGQCGSPLVSTRDGFIVGIHSASNFTNTNNYFTSVPKNFMELLTNQEAQQWVSGWRLNADSVLWGGHKVFMVKPEEPFQPVKEATQL
# Variants of: B1
# Assay: raw area under fraction-flipped curve 0-4 h after induction (AUC4h, not background-subtracted), DNA-recorder readout of cleavage of the substrate (dimensionless); higher = more cleavage of the substrate by the protease variant
# Settings: temperature: 34 °C; time window: 0-4 h after rhamnose induction
# Protocol: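 In vivo DNA recorder in E. coli TOP10(DE3) ΔrhaA at 34 °C. Each TEVp single-site mutant (parent TEVp 0) is paired with a single-site variant of the 7-mer TEVs (canonical ENLYFQ|S). The substrate sits between flexible linkers in a Bxb1-sfGFP-TEVs-SsrA fusion, so cleavage stabilises Bxb1 and speeds flipping of a recombination array, read by NGS. The value is the raw area under the fraction-flipped curve over 0-4 h after rhamnose induction (AUC4h), with ≥20 reads per time point. It is not background-subtracted; inactive controls average about 0.047.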
# 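Also: Bxb1 expression induced with 0.2% (w/v) L-rhamnose at OD600 near 0.5, cultures sampled hourly, flipped fraction per protease–substrate barcode pair counted by paired-end Illumina sequencing.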
Variant,area with substrate ENLYFCS,area with substrate ENLYFES,area with substrate ENLYFFS,area with substrate ENLYFIS,area with substrate ENLYFMS,area with substrate ENLYFPS,area with substrate ENLYFTS,area with substrate ENLYFDS,area with substrate ENLYFKS,area with substrate ENLYFLS,area with substrate ENLYFNS,area with substrate ENLYFRS,area with substrate ENLYFSS,area with substrate ENLYFVS,area with substrate ENLYFYS,area with substrate ENLYFHS,area with substrate ENLYFWS,area with substrate ENLYFGS
D91Q,0.0567,0.0656,0.0615,0.0534,0.0562,0.0684,0.0663,,,,,,,,,,,
L99P,0.0551,0.0698,0.0541,0.0483,0.0644,0.0609,0.0541,0.0533,0.0752,0.0663,0.0692,0.0566,0.0628,0.0578,0.0534,,,
K100H,0.0525,,0.0644,0.0575,0.0578,0.0651,0.0701,0.0611,0.0692,0.0123,0.0272,0.0671,,,0.0592,0.0574,0.0534,
F101K,0.0515,,0.0738,0.059,,0.0459,0.043,,,,,0.0558,,,0.0532,,,0.0166
Q105Y,0.0442,0.0548,0.0833,0.0572,0.0717,0.047,,,,,0.0747,0.0313,0.0612,,0.0602,0.0595,0.054,0.0636
T114K,0.0675,0.0729,0.0594,0.0282,0.0736,0.0757,,0.0657,,,,,,,0.0536,,0.0409,
S121G,0.0489,0.0602,0.0646,0.0496,0.0639,0.0676,0.0542,,0.0709,0.0607,0.0581,,,,0.0485,0.0538,,0.0554
S121P,0.0679,0.0445,,0.0631,0.0676,0.0584,,0.0597,,,,0.0568,0.0635,,0.0658,0.0691,0.0606,
S124A,0.0571,0.0637,0.0471,0.0568,,,0.0476,0.0676,0.0756,0.0587,0.072,,0.0707,,,0.0582,,0.0422
S124F,0.0929,,0.0595,0.0588,0.0666,0.0609,,,,,,,0.0673,0.0487,0.0535,0.0591,,
S135P,0.0746,0.051,0.0683,0.0723,0.0666,0.0531,0.0651,0.047,0.0657,,0.0618,0.0521,,0.0685,0.0627,0.0542,0.05,0.0889
S135V,0.0572,0.0467,0.0628,0.0662,0.0619,0.0592,0.0523,0.0507,,,0.0508,,0.0576,,,0.0522,,0.0516
G136Y,0.0572,0.0479,0.0726,0.0623,0.0595,0.0514,0.0609,,0.0738,,0.059,0.0571,,,0.0533,,0.0719,
W141R,0.0518,0.0586,0.0638,0.0526,0.0733,0.0589,0.0631,0.0594,,,0.0593,0.0546,0.0755,,0.0503,0.0551,,0.0556
K142D,0.0641,0.0641,,0.0599,,0.0658,0.0541,0.0589,,,,,0.0665,,0.0579,0.0596,0.0423,
K142R,0.0632,0.0557,0.0456,0.0604,0.0673,0.0737,0.0581,0.0547,0.0596,,,0.0448,,0.0662,0.0517,0.0613,0.0674,
G150Q,0.0447,,,,0.0574,0.0505,,0.0532,0.0553,0.0573,,0.065,0.0598,0.0669,0.0593,0.0748,,
G153P,0.049,0.046,0.051,,,0.0455,0.0531,0.0561,0.0601,0.0517,,0.0526,,0.0386,,,,0.0405
P155V,0.0347,0.0513,0.0722,0.059,0.0547,0.0577,0.0549,0.0481,0.0767,,0.0722,0.0571,,,,0.064,,
L156C,0.0499,0.0738,0.067,0.0561,0.0732,0.0552,0.0535,0.0692,,,0.0542,0.0624,0.0563,0.0591,0.0636,0.0579,,0.0499
L156S,0.0468,0.0502,,0.0495,0.0499,0.0459,0.0087,0.0499,0.061,0.0529,0.0631,0.0433,0.0524,0.0638,,0.0502,,
D161S,0.0553,0.0533,,0.0464,0.0577,0.053,,,0.0671,0.0702,,0.0501,,,,0.0719,,0.0556
G162S,0.0656,0.0561,0.0746,0.0589,0.0489,0.057,0.0537,,0.0524,,0.0614,0.0689,,0.0681,0.0421,,0.0719,0.038
H168C,0.0777,0.0677,0.0506,0.0644,,0.0711,0.0569,0.0529,0.06,,,,,,,0.0514,0.063,
F173M,0.0503,0.0613,,0.0481,0.08,0.0559,,,,,,,0.0571,,,,0.071,
T174P,0.0555,,0.0586,0.059,0.059,0.0559,0.0516,,0.0534,0.06,0.063,0.0571,,,,,,
N175E,0.0692,0.0594,0.0649,0.068,0.0573,0.0653,0.0428,0.0772,0.0594,,,0.0668,,,0.0589,,0.0617,
F180W,0.0519,0.098,0.0616,0.0498,,0.0546,0.0546,0.0564,0.0651,,0.0623,,0.0685,,,0.0569,,
V183R,0.0663,0.0636,0.0449,0.0485,,0.0426,,0.0568,,,0.0405,0.0545,0.0355,,0.0478,,,0.0412
